Source: article PMC4336329 (PLoS ONE, 2015)
Screen size: about 310,000 compounds; about 2,200 (0.71%) showed an effect of 50% or more. Effects have a minus sign here. The list shows a part of the results.

molecular target: human ether-à-go-go-related gene (hERG) potassium channel (human, UniProt Q12809); assay: primary screen, population patch clamp on CHO cells stably expressing hERG
Sequence (Q12809 whole entry, looked up): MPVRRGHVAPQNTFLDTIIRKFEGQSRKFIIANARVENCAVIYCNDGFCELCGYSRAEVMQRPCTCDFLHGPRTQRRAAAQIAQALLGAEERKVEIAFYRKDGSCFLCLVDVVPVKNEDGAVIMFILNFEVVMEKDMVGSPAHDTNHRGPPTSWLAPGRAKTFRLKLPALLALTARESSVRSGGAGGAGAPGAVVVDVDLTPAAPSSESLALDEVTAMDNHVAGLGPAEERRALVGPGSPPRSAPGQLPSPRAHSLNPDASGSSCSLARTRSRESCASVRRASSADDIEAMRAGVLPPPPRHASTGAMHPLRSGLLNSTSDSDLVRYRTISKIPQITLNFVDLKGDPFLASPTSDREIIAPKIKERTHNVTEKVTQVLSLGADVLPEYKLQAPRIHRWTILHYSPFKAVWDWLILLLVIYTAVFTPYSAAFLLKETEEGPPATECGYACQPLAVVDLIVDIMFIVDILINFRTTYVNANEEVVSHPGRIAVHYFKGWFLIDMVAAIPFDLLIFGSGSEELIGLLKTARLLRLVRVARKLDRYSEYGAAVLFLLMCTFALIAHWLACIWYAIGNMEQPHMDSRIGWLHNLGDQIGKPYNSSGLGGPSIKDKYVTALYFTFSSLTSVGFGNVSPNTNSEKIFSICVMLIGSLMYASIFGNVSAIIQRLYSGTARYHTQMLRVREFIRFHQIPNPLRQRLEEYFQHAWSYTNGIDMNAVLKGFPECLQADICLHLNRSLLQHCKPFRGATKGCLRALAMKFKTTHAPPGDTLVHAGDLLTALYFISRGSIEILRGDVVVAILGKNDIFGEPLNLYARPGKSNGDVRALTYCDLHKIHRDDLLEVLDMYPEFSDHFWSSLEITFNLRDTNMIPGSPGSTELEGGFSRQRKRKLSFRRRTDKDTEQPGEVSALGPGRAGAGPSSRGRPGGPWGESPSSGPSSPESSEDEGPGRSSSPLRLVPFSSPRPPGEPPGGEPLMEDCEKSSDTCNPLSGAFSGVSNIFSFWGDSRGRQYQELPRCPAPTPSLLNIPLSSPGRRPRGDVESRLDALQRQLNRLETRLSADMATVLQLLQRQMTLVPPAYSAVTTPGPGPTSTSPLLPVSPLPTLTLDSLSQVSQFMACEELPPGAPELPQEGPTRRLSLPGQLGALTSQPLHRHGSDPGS

Compound	hERG current change (%, negative = inhibition) at 1uM [%]
Cc1ccc(CCNC(=O)CCNS(=O)(=O)c2ccc3c(c2)oc(=O)n3C)cc1	-2.63
CC(Oc1ccccc1)C(=O)Nc1ccc(S(=O)(=O)N2CCCC2)cc1 (centres unmarked)	16.8
Cc1cc(NC(=O)CSc2[nH]c(=O)cc(C(F)(F)F)c2C#N)no1	5.76
CSc1ccc(/C=N/N2CCN(Cc3ccccc3)CC2)cc1	18.7
COc1ccc(N2CCN(C(=O)Cn3c(=O)[nH]c4ccccc4c3=O)CC2)cc1	6.77
CCCc1nc(NCc2ccc3c(c2)OCO3)c2nnn(Cc3ccccc3Cl)c2n1	10.1
CCN(CC)CCNC(=O)c1cc(Sc2nnc(C)s2)nc2ccccc12	-4.56
Cc1cc(C(C)(C)C)cc(C)c1COC(=O)C1CCC(=O)N1 (centres unmarked)	6.28
COc1ccc(CCNC(=O)c2cc(=O)[nH]c3ccccc23)cc1	16.2
O=C(O)c1ccccc1C(=O)N1CCN(c2cccc(Cl)c2)CC1	12.5
O=c1[nH]c2sc3c(c2c(=O)n1Cc1ccccc1)CCC3	-8.86
COC(=O)c1cc2c(=O)c3ccccc3oc2nc1C	14.9
COc1ccc(/C(N)=N/OC(=O)Cc2ccc(C)cc2)cc1	9.75
CC(C)(C)c1ccc(C(=O)N2CCN(C(=O)c3ccco3)CC2)cc1	9.19
Cc1ccc(S(=O)(=O)/N=C(/Nc2c(C)n(C)n(-c3ccccc3)c2=O)c2ccc(Cl)cc2)cc1	-13
COc1cccc(C(=O)Nc2nc(-c3ccc4c(c3)OCO4)cs2)c1	4.4
COc1ccc(C(=O)N(C)Cc2ccon2)cc1OC1CCN(C(C)C)CC1	14.7
CCCN1C(=O)C(O)(c2c(C)[nH]c3ccccc23)c2ccccc21 (centres unmarked)	12.6
Clc1ccc(CSc2nnc(-c3ccncc3)s2)cc1	11.7

Compound	hERG current change (%, negative = inhibition) at 1uM [%]
CCCSc1nc2sc3c(c2c(=O)n1CC)CC(C)(C)OC3	7.58
COC(=O)c1nnn(-c2nonc2N)c1CSc1nc2ccccc2o1	13.8
Cc1ccc(S(=O)(=O)c2cc3c(=O)n4ccccc4nc3n(CC3CCCO3)c2=N)cc1C (centres unmarked)	9.33
CCN(Cc1ccncc1)C(=O)c1ccco1	17.7
O=C(CCN1C(=O)C2CC=C(Cl)CC2C1=O)N1CCCCC1 (centres unmarked)	12.1
O=C(O)c1sccc1Oc1ccc(NS(=O)(=O)c2ccc(Cl)cc2)cc1	13.1
COc1ccc(Cl)cc1NCCC(O)c1ccc(F)cc1 (centres unmarked)	5.17
O=C(O)c1ccc(NC(=O)c2ccccc2NC(=O)c2cccc(Br)c2)cc1	8.54
CC(C)(C)NC(=O)C1CCN(S(=O)(=O)c2cccc(C(F)(F)F)c2)CC1	-4.68
Cc1ccc(CNC(=O)N[C@@H](Cc2ccccc2)C(=O)O)cc1	8.8
Cc1ccccc1C(=NCCCN(C)C)c1ccccc1C.Cl	9.99
CN1CCc2c(sc3c2C(=O)NC(/C=C/c2ccco2)N3)C1 (centres unmarked)	-3.03
CCc1cc(SC#N)cc(C)c1NC(=O)CCl	19.8
CCCCNc1nc(=S)[nH]c2cc(OC)c(OC)cc12	-20.7
CCN(CC)CCCNC(=O)c1cn(CC)c2ccc(S(=O)(=O)N(C)C3CCCCC3)cc2c1=O	-5.96
CC(=O)c1ccc(-n2c(-c3cc(-c4ccsc4)n[nH]3)n[nH]c2=S)cc1	7.9
Cc1ccc(S(=O)(=O)NCCc2nnc(SCc3cccnc3)n2C)cc1	10.9
Cc1cc(OCCn2ccnc2)ccc1C(C)C	3.14
Cc1sc2c(c1C)c(=O)n(-c1ccc(Cl)cc1)c(=O)n2Cc1cc(=O)n2ccccc2n1	-3.51

Compound	hERG current change (%, negative = inhibition) at 1uM [%]
CC1CCN(c2c(NCC3CCC(C(=O)NCCC4=CCCCC4)CC3)c(=O)c2=O)CC1 (centres unmarked)	6.05
COc1ccccc1CCNCc1ccc(OC)c(OCc2ccccc2)c1	-29.4
Cc1ccc2cc(CN(CCCO)S(=O)(=O)c3ccccc3F)c(=O)[nH]c2c1C	8.49
N#CCCN(C(=O)Nc1ccc(Cl)cc1)c1ccccc1	5.65
CC(OC(=O)CSc1ccc(F)cc1)C(=O)NC1(C#N)CCCCC1 (centres unmarked)	11.1
CCN1CCN(c2ncc(C(=O)Nc3ccccc3C(=O)OC)c3ccccc23)CC1	-1.67
COC(=O)c1c(C)[nH]c(C(=O)C(C)OC(=O)c2c(C)noc2C)c1C (centres unmarked)	7.04
CC1Cc2ccccc2N1C(=O)CCS(=O)(=O)c1cccs1 (centres unmarked)	8.12
C(=N\c1nc2ccccc2n1CCN1CCCCC1)/c1ccc2c(c1)OCO2	-12.2
COc1cccc(C2=NOC(C(=O)Nc3ccc4c(c3)OCO4)C2)c1 (centres unmarked)	12.7
Cc1ccc(C(=O)N2CCN(c3cnn(C)c(=O)c3Cl)CC2)cc1	-3.67
CN1C(=O)C(=Cc2ccc(Sc3ccccc3)o2)C(=O)N(C)C1=O	11.9
COC(=O)C1=C(c2ccc(OC(F)(F)F)cc2)C[C@@H]2CC[C@H]1N2C(=O)NC(C)C	-3.51
O=C1CS/C(=N/N=C/c2ccc(OS(=O)(=O)c3ccccc3)cc2)N1	8.09
Cc1ccccc1-c1nc(CS(=O)CC(=O)NCc2ccc3c(c2)OCO3)c(C)o1 (centres unmarked)	18.5
Cc1cccc(Cc2nnc(CCC(=O)N3CCCC(CN4CCOCC4)C3)o2)c1 (centres unmarked)	5.12
CCN(CC)S(=O)(=O)c1ccc(N2CCCCC2)c(NC(=O)C2=COCCO2)c1	9.49
COc1cc(C2C(C#N)=C(C)NC(C)=C2C#N)cc(OC)c1OC	14.3
